Survival data for 89 compounds are collected here from PubChem BioAssay AID463173 (ICCB-Longwood Screening Facility, Harvard Medical School, 2010).

The campaign covered roughly 52,000 compounds. About 4,300 (8.3%) were called active. No stated cut-off is given here; in the data, active means survival mostly below about 52% (no sharp cut-off); inactive means mostly above about 56%. The list shows a part of the results.

The assay relates to DeltatarO mutant. In words: growth inhibition of S. aureus wild type versus tarO mutant, primary screen, teichoic acid synthesis inhibitors, RN4220, OD600 (AID 463173). Particulars: OD600, 18 h, active compounds read low, screened at 18.75 µg/mL (by protocol).
For `O=C(NC1(C(F)(F)F)NC(=O)N(CCc2ccccc2)C1=O)c1ccccc1F` (centres undefined), the survival is inactive: 76%.
With `O=C(O)C1CCCN1C(=O)/C=C/c1ccco1` (centres undefined), the survival was inactive: 98%.
On to `Cc1ccc(NC(=O)CCc2c(C)nn(-c3ccc(N4CCCCC4)nn3)c2C)cc1F`, for which the survival is inactive: 124%.
Consider `COc1cccc(CSc2nc3cc(OC)c(OC)cc3c3nc(CCn4nc(C)cc4C)nn23)c1`, for which the survival was active: 60%.
With `CCOc1ccc2nc(N(Cc3cccnc3)C(=O)c3ccc4c(c3)OCCO4)sc2c1`, the survival was inactive: 84%.
`COc1cc(NC(=O)C(NC(=O)C2CCC(C)CC2)C(C)C)cc(OC)c1OC` (centres undefined): the survival is inactive: 83%.
Then `COc1ccc(Cl)cc1NS(=O)(=O)c1c(C)nc2scc(C)n2c1=O`, with inactive: 84%.
In the case of `COCCn1c(CNC(=O)c2cc([N+](=O)[O-])ccc2Cl)nc2cccnc21`, the survival was inactive: 84%.
The same measure for `COc1ccc2nc(SCc3nnc(-c4ccccc4)o3)c(C#N)cc2c1`: inactive: 71%; for `Cn1c(=O)c2c(nc(NCCc3ccccc3)n2Cc2cccc(Br)c2)n(C)c1=O`: inactive: 50%.
Consider `COc1ccc2c(c1)CCc1c(C(=O)Nc3c(C)nn(Cc4ccccc4Cl)c3C)noc1-2`, for which the survival was inactive: 109%.
As to `O=c1n(Cc2ccc(F)cc2Cl)c2ccccc2c2nc(-c3ccccc3)nn12`, the survival is inactive: 125%.
Then `Cc1ccc(CCNC(=O)c2nnc(Cc3cccc(F)c3)o2)cc1`, with inactive: 86%; and `CC1Cc2ccccc2N1S(=O)(=O)c1nnc(NC(=O)c2ccccc2Br)s1` (centres undefined), with active: 23%; and `COc1ccc(-c2cn3nc(N4CCCC(C(=O)Nc5ccc(Cl)cc5C)C4)sc3n2)cc1` (centres undefined), with inactive: 85%.
Then `COc1ccc(S(=O)(=O)NCC(c2cccs2)S(=O)(=O)c2ccc(C)cc2)cc1F` (centres undefined), with inactive: 98%; and `Cc1[nH]c2ccc(F)cc2c1CCNC(=O)c1cc2cc(Cl)ccc2oc1=O`, with inactive: 52%; and `CC(C)Oc1ccc(C(=O)Nc2ccc3oc(-c4ccncc4)nc3c2)cc1`, with inactive: 129%.
As to `CC(C)(C)c1nc(NCC2CCCO2)c2nnn(Cc3ccccc3Cl)c2n1` (centres undefined), the survival was inactive: 102%.
Then `Cc1nnc(NC(=O)C(C)N2CCCC2)s1` (centres undefined), with inactive: 97%; and `Cc1c(CNC2CCCCCC2)c(C(=O)O)c(C)n1Cc1c(F)cccc1Cl`, with inactive: 78%.
The same measure for `COc1ccc(C(=O)Nc2onc3c2CCCC3)cc1`: inactive: 71%; for `COc1ccc(NC(=O)Cn2cnc3c(nc4n3CCCCC4)c2=O)c(OC)c1`: inactive: 84%; for `COCCCn1c(=N)c(C(=O)NC2CCCCC2)cc2c(=O)n3ccccc3nc21`: inactive: 78%.
In the case of `CCOC(=O)c1ccc(N2C(=O)c3n[nH]c(C)c3C2c2ccc(O)c(OC)c2)cc1` (centres undefined), the survival was inactive: 115%.
The same measure for `COc1ccc(N2CCN(C(=O)Cn3cnc4sc(C)c(S(=O)(=O)N5CCC(C)CC5)c4c3=O)CC2)cc1`: inactive: 142%; for `Cc1ccc(-n2ncc(C(=O)N3CCN(c4ccccn4)CC3)c2C2CCN(C(=O)OC(C)(C)C)CC2)cc1C`: inactive: 72%.
On to `Cc1cc(=O)oc2c3c(ccc12)OCN(Cc1ccccc1Cl)C3`, for which the survival is inactive: 75%.
For `Cc1cccc(CS(=O)(=O)CC2Nc3ccc(C(=O)NCc4ccccc4)cc3NC2=O)c1` (centres undefined), the survival is inactive: 79%.
Take `CCOC(=O)c1ccccc1NC(=O)Cc1c(C(=O)O)c(C)cn1C`: the survival is active: 17%.
The same measure for `COc1ccc(S(=O)(=O)NCc2cccn2Cc2cccc(C)c2)cc1OC`: inactive: 83%.
With `CCOC(=O)c1c(-c2ccccc2)oc2ccc(NS(=O)(=O)c3ccccc3)cc12`, the survival was active: 35%.
For the compound `CCCCc1nn2c(=O)cc(COC(=O)c3ccccc3NC(=O)C3CCCCC3)nc2s1`, the survival is inactive: 71%.
Then `CCN(C(=O)CSc1nnc(C)n2c1cc1occc12)c1ccccc1`, with inactive: 104%.
For `CCOc1ccc(NC(=O)c2cc3c(=O)n4cccc(C)c4nc3s2)cc1`, the survival was inactive: 51%.
Consider `Cc1cc([N+](=O)[O-])ccc1NC(=O)CSc1nccn1C`, for which the survival is inactive: 138%.
Turning to `COc1ccc(CNC(=O)c2cnc(N3CCCC3)nc2C)cc1`, the survival is inactive: 71%.
For `Cc1cccc(NC(=O)CSc2nc(=O)n(CCN3CCOCC3)c3c2CCC3)c1C`, the survival was inactive: 87%.
As for `CCCC(=O)NCc1nc2cccnc2n1Cc1ccc(F)cc1`, the survival was inactive: 77%.
The same measure for `Cc1cccc(Cn2nnc3c(=O)[nH]c(C4CCN(C(=O)c5ccccc5F)CC4)nc32)c1`: inactive: 46%.
Turning to `Cc1ccc(NC(=O)Cn2c(=O)n(Cc3ccc4c(c3)OCO4)c(=O)c3ccc(C(=O)NC4CCCCC4)cc32)cc1`, the survival was inactive: 79%.
As to `CCOC(=O)c1ccc(NC(=O)Cc2coc3cc(C)cc(C)c23)cc1`, the survival is inactive: 60%.
As for `Cc1cccc2sc(N(Cc3cccnc3)C(=O)C3CCCCC3)nc12`, the survival was inactive: 83%.
The same measure for `COc1ccc(S(=O)(=O)c2cn(CC(=O)Nc3ccccc3)c3ccc(Cl)cc3c2=O)cc1`: inactive: 82%; for `COc1ccc(CSc2nc3ccncc3n2Cc2nc(-c3ccc(OC)c(OC)c3)oc2C)cc1`: inactive: 56%; for `COc1cccc(NC(=O)N2C3CCC2CC(O)(c2cccnc2)C3)c1` (centres undefined): inactive: 77%.
The same measure for `COc1ccc(-c2c(C)c3ccc(O)c(CN4CCN(C)CC4)c3oc2=O)cc1OC`: inactive: 80%; for `COc1ccc2c(c1)c1c(c(=O)n(-c3cccc(Cl)c3)c(=O)n1C)n2C`: inactive: 75%; for `CCOC(=O)c1c(C)c(C(=O)NCCc2ccc(OC)cc2)c(C)n1CC`: inactive: 101%.
Then `CC(=O)c1c(C)n(-c2cccc(C)c2)c2ccc(OC(=O)COc3ccccc3)cc12`, with inactive: 70%; and `COc1cccc(-c2cc(C(=O)NCCc3ccc(C)cc3)[nH]n2)c1`, with inactive: 104%.
On to `Clc1nc(Cl)nc(NCCC2=CCCCC2)n1`, for which the survival was inactive: 126%.
The same measure for `CCOc1ccc(CNC(=O)Cn2nc(C)c3sc4ccccc4c3c2=O)cc1`: inactive: 113%; for `COc1ccccc1CNC(=O)Nc1ccc2c(c1)N(C)C(=O)c1ccccc1S2`: inactive: 70%.
Consider `O=C(CSc1nc2c([nH]c3ccccc32)c(=O)n1-c1ccc(F)cc1)N1CCCCCC1`, for which the survival was inactive: 55%.
The same measure for `COc1ccc(Br)cc1CNC(=O)CCC(=O)N1CCSc2ccccc21`: active: 41%; for `CN(C(=O)c1cccc(Nc2ccc(-c3ccc4c(c3)OCCO4)nn2)c1)C1CCCCC1`: inactive: 78%.
Regarding `O=C(Cn1cc(SCc2cccc(C(F)(F)F)c2)c2ccccc21)N1CCCCCC1`, the survival is inactive: 90%.
For the compound `CN1C(=O)C2CCCCN2c2ccc(C(=O)NCc3ccccc3Br)cc21` (centres undefined), the survival is inactive: 57%.
Then `COc1cc(NC(=O)CCc2c(C)nc3c(c(C)nn3-c3ccccc3)c2C)cc(OC)c1OC`, with inactive: 60%; and `COc1cccc2cc(-c3nc(-c4cccs4)no3)c(=O)oc12`, with inactive: 67%.
Turning to `CCOC(=O)c1c(-c2ccc(C)cc2)csc1NC(=O)c1cc(=O)c2cc(C)c(C)cc2o1`, the survival is inactive: 62%.
As for `Cc1ccc(NC(=O)C2CCN(c3nc4ccccc4[nH]3)CC2)cc1Cl`, the survival is inactive: 94%.
`NC(=O)c1cc(Cl)nc2ccccc12`: the survival was inactive: 81%.
The same measure for `O=C(NCc1cccs1)c1ccc(CSc2nc3ccncc3n2Cc2cccc(F)c2)cc1`: inactive: 63%.
The same measure for `CCc1nn(CC(=O)Nc2c(C)cc(C)cc2C)c(=O)c2cc3sccc3n12`: inactive: 128%; for `C=Cc1ccc(Cn2c(=O)n(-c3ccccc3C)c(=O)c3c4c(sc32)CN(C(C)=O)CC4)cc1`: inactive: 72%; for `Cc1ccc(N(C)S(=O)(=O)c2ccc3[nH]cc(C(=O)O)c(=O)c3c2)cc1C`: inactive: 70%.
For `CC(=O)c1ccc(NC(=O)CSc2nc(-c3ccccc3F)nc3c2c(=O)n(C)c(=O)n3C)cc1`, the survival was inactive: 75%.
The same measure for `CCN(Cc1ccccc1)C(=O)Nc1ccc2c(c1)N(C)C(=O)c1ccccc1S2`: inactive: 87%; for `Cc1ccc(C(=O)Nc2ccc3c(c2)N(C)C(=O)c2ccccc2S3)cc1F`: inactive: 96%; for `N#C/C(=C\c1ccccc1)c1nc(-c2cc3cc(Br)ccc3oc2=O)cs1`: inactive: 74%.
Turning to `CCc1ccc(CNCc2c(C(=O)O)n(Cc3cccc(F)c3)c3cc(OC)ccc23)cc1`, the survival is inactive: 79%.
As for `Cc1cccc(N(C)C(=O)c2cc(S(=O)(=O)N3CCCC3)cn2C)c1`, the survival was inactive: 82%.
The same measure for `O=C(Nc1ccccc1Br)C1CCCN(S(=O)(=O)c2cccc3nsnc23)C1` (centres undefined): inactive: 77%.
Then `Cn1ccnc1SC(=O)N1c2ccccc2Sc2ccccc21`, with inactive: 77%.
The same measure for `COc1cccc(N2CCN(S(=O)(=O)c3ccc4[nH]c5c(c4c3)CCCC5)CC2)c1`: inactive: 84%; for `O=C(NCCS(=O)(=O)N1CCN(c2ccccc2)CC1)C(c1ccccc1)c1ccccc1`: inactive: 91%.
As for `O=C1CC(c2ccccc2)Cc2[nH]c(=O)c(C(=O)Nc3cccc(F)c3)cc21` (centres undefined), the survival was inactive: 89%.
The same measure for `Cc1cccc(NC(=O)c2c(NC(=O)C(F)(F)F)sc3c2CCCCC3)c1`: active: -3%.
`CCOC(=O)c1cccc(Nc2c3c(nc4ccccc24)CCC3)c1`: the survival is inactive: 68%.
The same measure for `Cc1ccc(N2CC(c3nc4ccccc4n3CCC3CCCCC3)CC2=O)cc1` (centres undefined): inactive: 64%.
Take `CCOc1ccc(C(CC(=O)O)N2Cc3ccccc3C2=O)cc1OC` (centres undefined): the survival is inactive: 96%.
Turning to `CC(O)c1nc2ccc(Oc3ccc4nc(C(C)O)[nH]c4c3)cc2[nH]1` (centres undefined), the survival was inactive: 94%.
Then `COc1ccccc1NC(=O)Cn1nnc(C(=O)NCc2ccc3c(c2)OCO3)c1N`, with inactive: 103%.
Then `Cn1c(NCCO)nc2c1c(=O)n(Cc1ccccc1Cl)c(=O)n2C`, with inactive: 74%; and `CCC(C)NC(=O)Cn1c(=O)cc(-c2ccccc2)c2c(C)nn(C)c21` (centres undefined), with inactive: 70%.
Consider `O=C(CSc1nc2c([nH]c3ccccc32)c(=O)n1-c1ccc(F)cc1)N1CCCCC1`, for which the survival was inactive: 92%.
For the compound `CCc1ccc(OCC(=O)N(Cc2ccc(Cl)cc2)C2CCS(=O)(=O)C2)cc1` (centres undefined), the survival is active: 57%.
